Test results reported in the supplement of paper PMC12217912.
The other results are listed elsewhere or left out. Sequences were assembled here from the parent chain. Values near 0.05 are background.

B1: TEV protease; numbered along this chain (parent)
chain: MGESLFKGPRDYNPISSSICHLTNESDGHTTSLYGIGFGPFIITNKHLFRRNNGTLVVQSLHGVFKVKDTTTLQQHLVDGRDMIIIRMPKDFPPFPQKLKFREPQREERICLVTTNFQTKSMSSMVSDTSCTFPSGDGIFWKHWIQTKDGQCGSPLVSTRDGFIVGIHSASNFTNTNNYFTSVPKNFMELLTNQEAQQWVSGWRLNADSVLWGGHKVFMVKPEEPFQPVKEATQL

Variants of: B1
Test: raw area under fraction-flipped curve 0-4 h after induction (AUC4h, not background-subtracted), DNA-recorder readout of cleavage of the substrate (dimensionless); higher = more cleavage of the substrate by the protease variant
Details: temperature: 34 °C; time window: 0-4 h after rhamnose induction
Description: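 In vivo DNA recorder in E. coli TOP10(DE3) ΔrhaA at 34 °C. Each TEVp single-site mutant (parent TEVp 0) is paired with a single-site variant of the 7-mer TEVs (canonical ENLYFQ|S). The substrate sits between flexible linkers in a Bxb1-sfGFP-TEVs-SsrA fusion, so cleavage stabilises Bxb1 and speeds flipping of a recombination array, read by NGS. The value is the raw area under the fraction-flipped curve over 0-4 h after rhamnose induction (AUC4h), with ≥20 reads per time point. It is not background-subtracted; inactive controls average about 0.047.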
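Note: Bxb1 expression induced with 0.2% (w/v) L-rhamnose at OD600 near 0.5, cultures sampled hourly, flipped fraction per protease–substrate barcode pair counted by paired-end Illumina sequencing.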

Row | Variant | area with substrate DNLYFQS | area with substrate HNLYFQS | area with substrate INLYFQS | area with substrate KNLYFQS | area with substrate MNLYFQS | area with substrate PNLYFQS | area with substrate QNLYFQS | area with substrate TNLYFQS | area with substrate WNLYFQS | area with substrate YNLYFQS | area with substrate GNLYFQS | area with substrate LNLYFQS | area with substrate NNLYFQS | area with substrate SNLYFQS | area with substrate FNLYFQS | area with substrate RNLYFQS | area with substrate VNLYFQS
1 | F133S | 0.0791 | 0.0582 | 0.0632 | 0.0534 | 0.0592 | 0.0633 | 0.0786 | 0.0575 | 0.0657 | 0.0569 | – | – | – | – | – | – | –
2 | W141L | 0.0529 | 0.0493 | 0.0509 | – | 0.0353 | – | – | – | 0.0452 | 0.0504 | 0.0497 | 0.0555 | 0.0527 | – | – | – | –
3 | W141D | 0.0588 | – | – | – | – | 0.057 | – | – | 0.0514 | – | 0.0545 | 0.0435 | – | – | – | – | –
4 | P134A | 0.0844 | – | 0.0554 | – | 0.0619 | – | – | – | – | – | 0.053 | – | 0.0667 | 0.0639 | – | – | –
5 | P134M | 0.0674 | 0.0752 | 0.056 | 0.0782 | 0.0532 | – | 0.0683 | – | – | – | – | 0.0584 | – | – | – | – | –
6 | S135T | 0.0601 | 0.069 | 0.0582 | 0.059 | 0.0688 | 0.0512 | – | 0.0678 | 0.0547 | – | 0.0368 | – | – | 0.0694 | 0.0649 | – | –
7 | Q151V | 0.0686 | 0.0449 | – | 0.0466 | – | 0.0625 | – | 0.0753 | 0.0519 | 0.0497 | – | – | – | – | – | – | –
8 | T159W | 0.0809 | – | – | – | – | 0.046 | – | – | – | – | – | – | – | – | – | 0.0708 | 0.0782
9 | I145S | 0.113 | 0.0692 | 0.0632 | – | 0.0728 | 0.0649 | – | 0.0753 | 0.069 | – | – | – | 0.0791 | 0.0828 | – | 0.0812 | –
10 | I145A | 0.104 | 0.0813 | – | – | – | 0.0816 | – | 0.0835 | – | 0.0563 | 0.0443 | 0.0667 | – | 0.075 | – | – | 0.0422
11 | G150M | 0.0792 | 0.0573 | 0.0549 | 0.0597 | 0.0796 | 0.0638 | – | 0.0576 | 0.0642 | – | – | – | 0.0575 | 0.045 | – | – | –
12 | S158Q | 0.0559 | 0.0609 | 0.0566 | – | 0.0611 | 0.0484 | – | 0.0508 | 0.0658 | – | 0.0408 | – | 0.0421 | 0.0641 | – | 0.0737 | –
13 | S158K | 0.0531 | 0.0765 | 0.0313 | 0.0458 | 0.0556 | – | – | 0.0435 | 0.0544 | 0.019 | – | 0.0646 | 0.04 | 0.0415 | 0.0523 | – | –
14 | P155T | 0.074 | 0.055 | 0.0588 | – | 0.0336 | – | – | – | 0.0462 | 0.0385 | – | 0.0671 | – | 0.0495 | – | 0.0532 | –
15 | D137M | 0.0769 | 0.068 | 0.0633 | 0.0624 | – | 0.0597 | 0.0685 | 0.0657 | 0.0863 | 0.0688 | 0.0695 | 0.0584 | – | 0.0657 | 0.0615 | – | 0.0768
16 | I139K | 0.036 | 0.0459 | 0.0503 | 0.0685 | 0.0597 | – | – | 0.0397 | 0.0826 | 0.0569 | – | – | – | – | – | 0.0779 | –
17 | V157K | 0.0594 | 0.0638 | – | – | – | 0.0569 | – | 0.062 | – | – | – | – | – | – | – | – | –
18 | V157H | 0.048 | 0.0471 | – | 0.0421 | 0.0554 | 0.0658 | 0.0539 | 0.0426 | 0.0461 | – | 0.058 | 0.0627 | 0.0185 | – | – | – | 0.0524
19 | V157C | 0.12 | – | – | – | – | 0.0729 | – | 0.0534 | – | – | – | – | – | – | – | – | –

Row | Variant | area with substrate DNLYFQS | area with substrate HNLYFQS | area with substrate INLYFQS | area with substrate KNLYFQS | area with substrate MNLYFQS | area with substrate PNLYFQS | area with substrate QNLYFQS | area with substrate TNLYFQS | area with substrate WNLYFQS | area with substrate YNLYFQS | area with substrate GNLYFQS | area with substrate LNLYFQS | area with substrate NNLYFQS | area with substrate SNLYFQS | area with substrate FNLYFQS | area with substrate RNLYFQS | area with substrate VNLYFQS
20 | G153D | 0.0467 | – | – | – | 0.0263 | 0.049 | – | – | 0.072 | – | 0.0481 | – | – | 0.0595 | 0.0497 | – | –
21 | H143Y | 0.128 | 0.0558 | – | – | 0.0654 | 0.0633 | 0.048 | – | 0.0694 | 0.0707 | – | 0.0405 | 0.0384 | 0.0698 | – | – | –
22 | H143Q | 0.0695 | 0.0543 | 0.0467 | 0.0681 | 0.0446 | 0.0616 | – | 0.0556 | 0.0451 | 0.0444 | 0.0525 | 0.0752 | – | 0.0487 | – | 0.057 | 0.0705
23 | C131L | 0.0775 | – | – | – | – | – | – | – | – | 0.0597 | – | – | – | – | – | – | –
24 | C131A | 0.105 | – | – | – | – | – | – | – | – | – | 0.0604 | 0.0624 | 0.06 | – | – | – | –
25 | G138E | 0.0655 | 0.0559 | 0.0643 | 0.0617 | – | – | – | – | 0.0611 | – | – | 0.0564 | – | – | – | – | –
26 | G162Q | 0.0854 | 0.0704 | 0.0528 | – | – | 0.063 | 0.069 | – | 0.0608 | 0.0604 | – | – | 0.0784 | 0.0695 | 0.0549 | – | 0.0686
27 | G162T | 0.0712 | 0.0585 | – | 0.076 | – | 0.0517 | – | 0.0629 | 0.0527 | – | – | 0.0548 | 0.0589 | 0.0544 | – | – | –
28 | L156P | 0.0577 | 0.0596 | 0.0495 | 0.0608 | 0.0443 | 0.0497 | – | 0.0568 | – | – | 0.0499 | 0.0564 | 0.0366 | 0.0586 | 0.0481 | 0.065 | –
29 | S154E | 0.0535 | – | 0.0467 | 0.0576 | – | – | – | – | 0.0465 | – | – | 0.0501 | 0.0498 | – | 0.0801 | – | –
30 | F163G | 0.0965 | – | 0.0679 | 0.074 | – | 0.073 | – | – | 0.0516 | – | 0.0559 | – | – | – | – | – | –
31 | F163C | 0.0953 | – | – | – | – | – | – | – | – | 0.0766 | – | – | – | 0.0671 | 0.0633 | 0.0625 | 0.0459
32 | S130T | 0.08 | 0.0653 | – | 0.0713 | – | 0.0634 | – | 0.0728 | – | – | – | – | – | 0.0722 | 0.0812 | – | –
33 | S130F | 0.0751 | 0.0541 | 0.0916 | 0.0585 | 0.0839 | 0.0572 | 0.0669 | 0.0663 | 0.0621 | – | – | 0.0561 | – | 0.0523 | 0.0735 | – | 0.058
34 | S130A | 0.082 | 0.0433 | 0.0657 | – | – | 0.0607 | – | – | 0.0618 | 0.0647 | 0.105 | – | – | – | – | – | –
35 | D161N | 0.0662 | 0.0512 | 0.0536 | 0.0782 | 0.06 | 0.0681 | – | 0.0555 | 0.0537 | 0.0369 | 0.0667 | 0.0448 | 0.0577 | – | 0.0581 | 0.0605 | 0.0546
36 | D161L | 0.0534 | 0.0381 | – | – | 0.0592 | – | – | 0.0517 | 0.0645 | 0.0508 | 0.0584 | 0.058 | 0.0485 | 0.0373 | 0.0536 | – | –
37 | D149W | 0.0544 | 0.0579 | 0.0641 | 0.0451 | 0.0598 | 0.0596 | – | 0.0453 | 0.0566 | – | – | 0.0617 | 0.0532 | 0.0676 | – | – | –
38 | D149E | 0.0575 | 0.0554 | 0.0707 | – | 0.0441 | 0.0585 | – | 0.0672 | 0.061 | 0.0567 | 0.0686 | 0.0486 | – | – | – | – | –
